# Measurements as given in PubChem BioAssay AID1347055 (National Center for Advancing Translational Sciences (NCATS), 2019).
# Among all 54,000 compounds or so, about 120 (0.22%) were called active. The inconclusive results got no clear call from the source; some entries with a clear call stand among them for comparison. The call rests on the fitted dose curve; in most records, active means well fitted inhibition curve with a large enough effect; inconclusive means small, poorly fitted or top-dose-only effect, or effect the other way; inactive means flat fitted curve, though single readings scatter. Potencies of inconclusive entries are left out as doubtful fits.
# Molecular target: Fumarate hydratase, mitochondrial (Homo sapiens) (UniProt P07954)
# Chain of UniProt P07954 (P07954 whole entry, looked up): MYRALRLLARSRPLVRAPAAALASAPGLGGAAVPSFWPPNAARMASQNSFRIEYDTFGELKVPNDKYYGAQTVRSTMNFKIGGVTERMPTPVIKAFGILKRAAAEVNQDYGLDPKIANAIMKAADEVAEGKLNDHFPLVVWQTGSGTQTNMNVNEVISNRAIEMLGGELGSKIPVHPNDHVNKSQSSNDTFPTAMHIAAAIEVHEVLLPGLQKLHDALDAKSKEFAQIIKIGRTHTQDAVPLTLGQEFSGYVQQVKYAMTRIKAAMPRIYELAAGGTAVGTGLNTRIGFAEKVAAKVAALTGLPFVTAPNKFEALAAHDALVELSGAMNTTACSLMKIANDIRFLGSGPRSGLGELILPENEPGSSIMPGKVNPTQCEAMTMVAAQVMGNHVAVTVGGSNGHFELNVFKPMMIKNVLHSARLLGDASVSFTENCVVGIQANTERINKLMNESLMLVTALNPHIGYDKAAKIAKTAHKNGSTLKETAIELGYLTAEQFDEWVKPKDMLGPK
# Test: Identification of activators of human fumarate hydratase by quantitative high-throughput screening; further: the screen sought activators but most active calls are inhibition curves; nearly all actives have a fitted effect of over 45% in size
# Settings: FH coupled MDH/diaphorase resazurin fluorescence, 15 min; activity change, negative = inhibition: at 79.9 µM (top of the series)
# On the % scale 0 is the no-effect control and ±100 the full control effect; potency means the concentration at half of the fitted maximal effect; tags describe the fitted curve by direction and shape.
SMILES,Potency,"activity change, negative = inhibition"
CCOc1ccccc1CN1CCN(S(=O)(=O)c2ccccc2)CC1,"inconclusive [inhibitor, partial curve, poor fit]",–
CCOc1ccc(N(CC)S(=O)(=O)c2cc(Br)cc3c2N(C(C)=O)C(C)C3)cc1 (stereo not given),"inconclusive [inhibitor, partial curve, poor fit]",–
COc1ccc(S(=O)(=O)c2cnc3ccc(Cl)cc3c2N2CCCCC2C)cc1 (stereo not given),"inconclusive [inhibitor, partial curve, poor fit]",–
Cc1ccccc1OCc1ccc(-c2nc(C#N)c(NCc3cccnc3)o2)o1,"inconclusive [inhibitor, single point]",–
COc1cc(NC(=O)c2cccc3c2C(=O)N(C2CCCCC2)C3)cc(OC)c1OC,"inconclusive [inhibitor, partial curve]",–
O=c1cc(-c2ccccc2)nc(SCc2nc(-c3ccccc3Cl)no2)[nH]1,"inconclusive [inhibitor, partial curve]",–
COc1ccc(CNC(=O)CCCN2C(=O)CSc3c2c(C)nn3-c2ccccc2)cc1,"inconclusive [inhibitor, full curve, poor fit]",–
COC(=O)c1c(SCC(=O)Nc2cc(OC)cc(OC)c2)[nH]c2ccc(C)cc2c1=O,"inconclusive [inhibitor, partial curve, poor fit]",–
Cc1nc2sccn2c(=O)c1S(=O)(=O)Nc1ccc(N2CCOCC2)c(Cl)c1,–,inactive: -15.9%
CCCOc1cccc(C(=O)Nc2cccc3cccnc23)c1,–,inactive: -8.86%
COc1ccc(-c2nc3ccc(NS(=O)(=O)c4ccc(C)cc4)cc3o2)cc1,"inconclusive [inhibitor, partial curve]",–
COc1ccc(-c2noc(COc3cc(C)ccc3C)n2)cc1OC,"inconclusive [inhibitor, single point]",–
CC1CCN(C(=O)c2cc(-c3ccc(Br)cc3)on2)CC1,"inconclusive [inhibitor, single point]",–
O=C(NCc1cccc(Cl)c1)c1ccc2nc(N3CCCCC3)sc2c1,"inconclusive [inhibitor, partial curve, poor fit]",–
COc1cc(C(=O)n2nc(C)c(Sc3ccc(Cl)cc3)c2C)cc(OC)c1OC,–,inactive: -9.06%
NC1(C(=O)O)CCc2cc(C(=O)O)ccc21 (stereo not given),"inconclusive [inhibitor, partial curve, poor fit]",–
NC(CO)C(=O)NNCc1ccc(O)c(O)c1O (stereo not given),"inconclusive [activator, full curve]",–
COc1ccc(NC(=O)Cn2c(=O)n(Cc3nc(-c4ccccc4)no3)c(=O)c3ccccc32)cc1Cl,"inconclusive [inhibitor, partial curve, poor fit]",–
CSc1cccc(Nc2cc(C(=O)NCCCN(C)c3ccccc3)c3ccccc3n2)c1,"inconclusive [inhibitor, partial curve, poor fit]",–
COc1ccccc1NC(=O)CSc1nc(-c2ccc(C(C)(C)C)cc2)c(C#N)c(=O)[nH]1,"inconclusive [inhibitor, partial curve]",–

SMILES,Potency,"activity change, negative = inhibition"
CCOc1ccc(NC(=O)c2c(NCc3ccc(C)o3)sc3c2CCC(C)C3)cc1 (stereo not given),"inconclusive [inhibitor, full curve, poor fit]",–
COc1ccc(OC)c(NC(=O)CN(C)S(=O)(=O)c2ccc3[nH]c4c(c3c2)CCCC4)c1,"inconclusive [inhibitor, partial curve, poor fit]",–
COc1ccc(C(=O)NCCc2sc(-c3ccc(Cl)cc3)nc2C)c(OC)c1,"inconclusive [inhibitor, single point]",–
Cc1cc(-c2ccc(/C=C3\SC(=Nc4ccc(Cl)c(C(=O)O)c4)NC3=O)o2)c([N+](=O)[O-])cc1C,active: 25.1 µM,–
Cc1cc(C)n2nc(SCC(=O)Nc3ccccc3C)nc2n1,–,inactive: 0.165%
O=C1Nc2ccccc2C1(c1ccc(O)cc1)c1ccc(O)cc1,–,inactive: -14.7% [at 53.3 µM]
Cc1oc(-c2ccc(Cl)cc2)nc1CN1CCC(C(=O)NCCCN2CCN(c3cccc(Cl)c3)CC2)CC1,"inconclusive [inhibitor, partial curve, poor fit]",–
CC(C)c1ccc(OC(=O)c2cc(-c3ccc(Cl)cc3)on2)cc1,–,inactive: -3.09%
Cc1cc(F)ccc1S(=O)(=O)Nc1ccc2c(c1)CCCN2C(=O)c1cccs1,"inconclusive [inhibitor, single point]",–
COC(=O)c1cnc(NCc2ccc(F)cc2)c2ccccc12,"inconclusive [inhibitor, partial curve]",–
COc1ccc(C(C(=O)NCc2ccccc2)N(C(=O)Cn2nnc3ccccc32)c2cccc(OC)c2)cc1 (stereo not given),"inconclusive [inhibitor, full curve]",–
Cc1cc(-c2ccc(C)c(S(=O)(=O)NC(c3cccs3)C(C)C)c2)on1 (stereo not given),"inconclusive [inhibitor, single point]",–
CCn1c(=O)c2cc(C(=O)Nc3cc(OC)c(OC)c(OC)c3)sc2c2ccccc21,"inconclusive [inhibitor, partial curve]",–
Cc1cccc(CNS(=O)(=O)c2ccc(-c3cnc(C4CC4)o3)cc2)c1,"inconclusive [inhibitor, partial curve]",–
CC(C)c1ccc(S(=O)(=O)c2nnn3c2nc(N2CCN(C)CC2)c2sccc23)cc1,–,inactive: -34.8%
COc1ccccc1NC(=O)c1cc2ccc3cccnc3c2[nH]1,–,inactive: -28.7%
COc1ccc(-c2[nH]c(-c3ccc(O)cc3)nc2-c2ccccc2)cc1,"inconclusive [inhibitor, single point]",–
CCS(=O)(=O)N1CCc2cc(C(=O)Nc3ccc(Br)cc3F)ccc21,–,inactive: -6.05%
O=C(CCC(=O)N1CCSc2ccccc21)Nc1ccc(Cl)cc1,"inconclusive [inhibitor, partial curve]",–
O=C1C(SCCO)=C(SCCO)C(=O)c2ccccc21,active: 7.94 µM,–
